{"source": "PubChem BioAssay AID686978", "about": "(National Center for Advancing Translational Sciences (NCATS), 2013)", "note": "About 64,000 (15%) of roughly 420,000 compounds were called active. Inconclusive results, whose numbers are uncertain, are shown with a selection of clear calls. The call rests on the fitted dose curve; in most records, active means well fitted inhibition curve with a large enough effect; inconclusive means small, poorly fitted or top-dose-only effect; inactive means flat fitted curve, though single readings scatter. No potency is given beside an inconclusive call; the fits are too rough. On the % scale 0 is the no-effect control and ±100 the full control effect; potency means the concentration at half of the fitted maximal effect; tags describe the fitted curve by direction and shape."}
{"assay": "qHTS for Inhibitors of human tyrosyl-DNA phosphodiesterase 1 (TDP1): qHTS in cells in absence of CPT; further: nearly all actives have a fitted effect of over 55% in size", "conditions": "DT40 Tdp1-/- hTDP1 cells, no CPT, ATP luminescence, 48 h; activity change, negative = growth inhibition: at 46.2 µM (top of the series)", "how_it_was_run": "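No-CPT arm: Tdp1-/-;hTDP1 DT40 cells (400/well) plus compounds, incubated ≥48 hr at 37 °C. Readout CellTiter-Glo luminescence.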"}
{"smiles": "Cc1ncoc1C(=O)N1CCCC(C(=O)Nc2cccc(-c3ccc(F)cc3)c2)C1", "note": "(stereo not drawn)", "Potency": "active: 18.4 µM"}
{"smiles": "CCOc1ccc(NS(=O)(=O)c2ccc(NC(=S)NC(=O)CC(C)C)cc2)cc1", "Potency": "inconclusive [inhibitor, single point]"}
{"smiles": "O=C(NCC(=O)N1CCN(C(c2ccccc2)c2ccccc2)CC1)c1ccccc1F", "Potency": "active: 29.1 µM"}
{"smiles": "Cc1cc(C)cc(OCC(=O)Nc2ccc(N3CCN(C(=O)c4ccco4)CC3)cc2)c1", "Potency": "active: 17.8 µM"}
{"smiles": "Cc1nn(-c2ccccc2)c(N2CCCC2)c1C=O", "activity change, negative = growth inhibition": "inconclusive: -36.3% [inhibitor]"}
{"smiles": "CCc1cc2c(=O)n(Cc3ccco3)c(SCC(=O)NCC3CCCO3)nc2s1", "note": "(stereo not drawn)", "Potency": "active: 16.4 µM"}
{"smiles": "CCN(CC(=O)N1CCCCCC1)S(=O)(=O)c1ccc(Cl)cc1", "activity change, negative = growth inhibition": "inactive: -19.1%"}
{"smiles": "COc1cc(C2/C(=C(\\O)c3ccc4c(c3)OCCO4)C(=O)C(=O)N2CCN2CCOCC2)cc(OC)c1OC", "note": "(stereo not drawn)", "activity change, negative = growth inhibition": "inactive: -0.171%"}
{"smiles": "C[C@H]1[C@H]2CC[C@H]3C4CC=C5C[C@@H](N(C)C)CC[C@]5(C)C4CC[C@]23CN1C", "note": "(stereo partly drawn)", "Potency": "inconclusive [inhibitor, partial curve, poor fit]"}
{"smiles": "CCOc1ccc(-n2nc(CO)c(C(=O)NCc3ccccn3)n2)cc1", "Potency": "inconclusive [inhibitor, single point]"}
{"smiles": "CCCOP(=O)(c1ccc(N(C)C)cc1)C(O)c1ccccc1OC", "note": "(stereo not drawn)", "activity change, negative = growth inhibition": "inconclusive: -35.7% [inhibitor]"}
{"smiles": "Cc1cc(C(=O)COC(=O)c2ccc(O)cc2)c(C)n1CC1CCCO1", "note": "(stereo not drawn)", "activity change, negative = growth inhibition": "inactive: -10.3%"}
{"smiles": "C/C(=N\\NC(=O)c1ccc(NS(=O)(=O)c2cccs2)cc1)c1ccc2c(c1)OCO2", "Potency": "inconclusive [inhibitor, single point]"}
{"smiles": "NC(=O)c1ccccc1OCC(=O)c1ccc(Cl)cc1", "Potency": "inconclusive [inhibitor, partial curve, poor fit]"}
{"smiles": "Cc1ccc(C)c(NC(=O)c2sc(Cl)nc2-c2ccccc2)c1", "Potency": "inconclusive [inhibitor, partial curve, poor fit]"}
{"smiles": "COc1cc(NC(=O)C2=C(N3CCOCC3)/C(=C/c3ccc(Cl)cc3)CC2)cc(OC)c1OC", "Potency": "active: 7.31 µM"}
{"smiles": "[O-][N+]1=c2ccc(Nc3ccccc3)cc2=NC12CCCCC2", "Potency": "active: 4.11 µM"}
{"smiles": "O=C(c1ccccc1[N+](=O)[O-])N(CCc1ccccc1)Cc1ccccc1", "Potency": "active: 11.6 µM"}
{"smiles": "COc1ccc(C(CCN2CCCCC2)c2c(OC)cc(OC)c3c(-c4ccccc4)cc(=O)oc23)cc1", "note": "(stereo not drawn)", "Potency": "inconclusive [inhibitor, single point]"}
{"smiles": "O=C(N[C@@H](Cc1ccccc1)C(=O)N1CCC2(CC1)NCCc1[nH]cnc12)c1cccc(F)c1", "Potency": "inconclusive [inhibitor, single point]"}
{"smiles": "CC(C)(C)c1ccc(CC(=O)N2CCC2(C)C(=O)NCCC#N)cc1", "note": "(stereo not drawn)", "Potency": "inconclusive [inhibitor, single point]"}
{"smiles": "O=C(Nc1ccnn1C1CCN(Cc2ccc(CO)o2)CC1)c1ccccc1", "activity change, negative = growth inhibition": "inconclusive: 3.49% [inhibitor]"}
{"smiles": "COc1cccc2cc(C(=O)Nc3ccccc3Cl)/c(=N/NS(=O)(=O)c3ccccc3)oc12", "activity change, negative = growth inhibition": "inactive: 13.1%"}
{"smiles": "CCN1C(=O)[C@H]2[C@@H](c3ccc(-c4ccc(OC)cc4)cc3)N[C@@](Cc3ccccc3)(C(=O)OC)[C@H]2C1=O", "Potency": "inconclusive [inhibitor, single point]"}
{"smiles": "CC(C)c1cc(Cn2c3ccccc3c(=O)n2C(C)Cn2cc(C3=CCCCC3)nn2)on1", "note": "(stereo not drawn)", "Potency": "inconclusive [inhibitor, single point]"}
{"smiles": "CCCCNC(=O)N1CCN(C(=O)C2CCCO2)CC1", "note": "(stereo not drawn)", "activity change, negative = growth inhibition": "inconclusive: -26.4% [inhibitor]"}
{"smiles": "O=C(Nc1cccc(S(=O)(=O)NC2=NCCCCC2)c1)c1cc(-c2ccc(Cl)cc2)nc2ccccc12", "Potency": "inconclusive [inhibitor, single point]"}
{"smiles": "Cc1cccc(NC(=S)NCCc2ccc(Cl)cc2)c1C", "Potency": "inconclusive [inhibitor, single point]"}
{"smiles": "COc1ccc(N2CCN(C(=O)C3CCN(S(=O)(=O)c4cccc5nonc45)CC3)CC2)cc1", "Potency": "active: 16.4 µM"}
{"smiles": "CCc1nc2c(c(=O)c3ccccc3n2C)c(=O)n1-c1ccc(F)cc1", "Potency": "inconclusive [inhibitor, single point]"}
{"smiles": "CCOC(=O)c1noc2ncnc(Nc3cc(Cl)c(OC)cc3OC)c12", "activity change, negative = growth inhibition": "inactive: 9.87%"}
{"smiles": "Cc1ccc2[nH]c(=O)c3cc(C(=O)N(C)c4ccc(C)c(C)c4)sc3c2c1", "Potency": "active: 10.3 µM"}
{"smiles": "CCN(CC)CCN1C(=O)C2C(C(=O)Nc3cccc(SC)c3)C3C=CC2(O3)C1C(=O)NC1CCCC(C)C1C", "note": "(stereo not drawn)", "Potency": "inconclusive [inhibitor, single point]"}
{"smiles": "O=S(=O)(c1ccc(F)cc1)N1CN(Cc2ccco2)c2nc3ccccc3nc21", "Potency": "inconclusive [inhibitor, single point]"}
{"smiles": "CCc1ccc(CN(C)C(=O)c2cc(COc3cccc4cnccc34)on2)cc1", "Potency": "active: 6.51 µM"}
{"smiles": "CC(=O)c1cccc(NCC(=O)Nc2cccc(S(=O)(=O)N3CCCCC3)c2)c1", "Potency": "inconclusive [inhibitor, single point]"}
{"smiles": "Cn1cccc1C(=O)OCC(=O)Nc1cc(C(C)(C)C)nn1-c1ccccc1", "Potency": "inconclusive [inhibitor, single point]"}
{"smiles": "COc1cc2cc(C(c3nnnn3C3CCCC3)N3CCCCCC3)c(=O)[nH]c2cc1OC", "note": "(stereo not drawn)", "activity change, negative = growth inhibition": "inactive: -23.6%"}
{"smiles": "CCOC(=O)C1CCCN(c2c(NCCN3CCCCC3C)c(=O)c2=O)C1", "note": "(stereo not drawn)", "activity change, negative = growth inhibition": "inactive: -3.97%"}
{"smiles": "CC1CCN(c2nc(-c3ccncc3)nc3ccccc23)CC1", "Potency": "inconclusive [inhibitor, single point]"}
{"smiles": "COc1ccc(CNCc2ccccc2[N+](=O)[O-])cc1OC", "Potency": "inconclusive [inhibitor, partial curve, poor fit]"}
{"smiles": "Cc1cc(C)cc(NC(=O)CN2CCCN(S(=O)(=O)c3ccc(Br)s3)CC2)c1", "Potency": "inconclusive [inhibitor, single point]"}
{"smiles": "CCOC(=O)C1(C)CCCCCN1C(=O)c1ccco1", "note": "(stereo not drawn)", "Potency": "inconclusive [inhibitor, single point]"}
{"smiles": "CCOC(=O)C(=CNc1cc(Cl)c(-c2ccco2)c(Cl)c1)C(=O)OCC", "Potency": "active: 11.6 µM"}
{"smiles": "COc1ccc(-c2nc3sc(CCNC(=O)Cc4ccc(F)cc4)c(C)n3n2)cc1", "Potency": "active: 16.4 µM"}
{"smiles": "Cc1cc2c(c(C)c1CCO)C(=O)[C@H](C)C2", "Potency": "inconclusive [inhibitor, partial curve]"}
{"smiles": "Cn1nc(/C=C/c2ccccc2)ccc1=O", "Potency": "inconclusive [inhibitor, single point]"}
{"smiles": "O=S(=O)(NCC(c1cccnc1)N1CCN(c2ccccc2F)CC1)c1cccs1", "note": "(stereo not drawn)", "Potency": "inconclusive [inhibitor, single point]"}
{"smiles": "COc1ccc(C)cc1NC(=O)Nc1cc(C(=O)NCc2ccc(C)cc2)ccc1N1CCCC1", "Potency": "inconclusive [inhibitor, single point]"}
{"smiles": "Cc1ccc(Cc2cnc(NC(=O)CN3CCOCC3)s2)cc1Cl", "Potency": "inconclusive [inhibitor, partial curve]"}
{"smiles": "CCCn1nnc(NC(=O)c2cccc(OCC(C)C)c2)n1", "Potency": "inconclusive [inhibitor, single point]"}
{"smiles": "CCOc1cc(C(=O)NC(C)C2CC3CCC2C3)cc(OCC)c1OCC", "note": "(stereo not drawn)", "Potency": "inconclusive [inhibitor, single point]"}
{"smiles": "Cc1ccc(S(=O)(=O)CC(=O)Nc2cccc(C)n2)cc1", "activity change, negative = growth inhibition": "inactive: -26.3%"}
{"smiles": "CCN(CC(=O)Nc1ccc(NC(C)=O)cc1)C(=O)c1oc2c(ccc3ccccc32)c1C", "Potency": "inconclusive [inhibitor, single point]"}
{"smiles": "CCOc1ccccc1OCCCCn1c(-c2ccc(Cl)cc2)nc2ccccc2c1=O", "activity change, negative = growth inhibition": "inactive: -8.82%"}
{"smiles": "CN1c2ccccc2C(C)(C)C12CCCC(=O)N2", "note": "(stereo not drawn)", "Potency": "inconclusive [inhibitor, single point]"}
{"smiles": "c1ccc(CCn2cnc3ccccc32)cc1", "Potency": "inconclusive [inhibitor, partial curve]"}
{"smiles": "Cc1ccc(CO/N=C/C2=C(Cl)c3ccccc3CC2)cc1", "Potency": "inconclusive [inhibitor, single point]"}
{"smiles": "CCOC(=O)C1=CCN(S(=O)(=O)c2ccc(C)cc2)C1c1cccc2ccccc12", "note": "(stereo not drawn)", "Potency": "inconclusive [inhibitor, single point]"}
{"smiles": "CCN(Cc1ccccc1)S(=O)(=O)c1cc(C(=O)c2c(N)n(C)c(=O)n(C)c2=O)ccc1OC", "Potency": "active: 29.1 µM"}
{"smiles": "CCOc1ccc(CNCc2c(C(=O)O)c(C)n(Cc3ccc(C)cc3)c2C)cc1", "Potency": "active: 18.4 µM"}
{"smiles": "CCOC(=O)N1CCN(C(=O)c2cn(CC)c3ccc(S(=O)(=O)N4CCC(C)CC4)cc3c2=O)CC1", "activity change, negative = growth inhibition": "inconclusive: -32.7% [inhibitor]"}
{"smiles": "COc1ccccc1C(=O)Nc1ccnn1C1CCN(CCC(C)c2ccc(C)o2)CC1", "note": "(stereo not drawn)", "Potency": "inconclusive [inhibitor, single point]"}
{"smiles": "COc1ccc(C(c2nnnn2C(C)C)N2CCN(C(=O)c3ccco3)CC2)cc1", "note": "(stereo not drawn)", "activity change, negative = growth inhibition": "inactive: -6.01%"}
{"smiles": "COC(=O)c1ccc(Sc2ccc(Cl)cc2)c(N)c1", "Potency": "inconclusive [inhibitor, partial curve]"}
{"smiles": "COc1ccc(NC(=O)C(=O)Nc2cccc3ccccc23)c(OC)c1", "activity change, negative = growth inhibition": "inactive: 3.25%"}
{"smiles": "Clc1ccc(CSc2nnc(CN3CCOCC3)n2-c2ccccc2)cc1Cl", "Potency": "inconclusive [inhibitor, single point]"}
{"smiles": "CN1CCc2c(sc(NC(=O)c3ccc([N+](=O)[O-])o3)c2C(N)=O)C1", "Potency": "active: 3.66 µM"}
